The other results are listed elsewhere or left out.
Test system: HSkMC (human skeletal muscle cells)
Assay: cytotoxicity call (relative viability < 0.9)
Settings: 10 µM

Row | Structure (SMILES) | cytotoxicity call
1 | COc1ccc(NC(=O)N(C)C[C@@H]2Oc3c(NC(=O)c4cc(C)nn4C)cccc3C(=O)N([C@H](C)CO)C[C@H]2C)cc1 | inactive
2 | Cc1ccccc1-n1ccc(=O)[nH]c1=O | inactive
3 | Cc1ccc(S(=O)(=O)N(C)C[C@H]2Oc3ccc(NS(C)(=O)=O)cc3C(=O)N([C@@H](C)CO)C[C@H]2C)cc1 | inactive
4 | CCOC(=O)[C@H]1CCCCN1 | inactive
5 | N=C(N=C(N)N)Nc1cc(-c2cccs2)n[nH]1 | inactive
6 | C[C@@H]1CN([C@@H](C)CO)C(=O)c2cc(NC(=O)CCC(F)(F)F)ccc2O[C@@H](C)CCCCO[C@@H]1CN(C)S(=O)(=O)c1ccc(F)cc1 | inactive
7 | C[C@H](CO)N1C[C@H](C)[C@H](CN(C)C(=O)Nc2ccccc2)Oc2ccc(NS(=O)(=O)c3cn(C)cn3)cc2C1=O | inactive
8 | C[C@@H]1CN([C@@H](C)CO)C(=O)c2cc(NS(C)(=O)=O)ccc2O[C@@H]1CN(C)C(=O)Nc1ccc(F)cc1 | inactive
9 | CC(C)N1CC=C[C@@]23O[C@@H]4C=CCOC(=O)[C@@H]4[C@H]2C(=O)N([C@@H](C)CO)[C@@H]3C1=O | inactive
10 | C=CCOC(=O)[C@@H]1[C@H]2C(=O)O[C@H](c3ccccc3)[C@H](c3ccccc3)N2[C@H](c2ccc(OCCOC(=O)[C@H]3C[C@H]4C(=O)NCC(=O)N4[C@H]3c3ccc(O)cc3)cc2)[C@@]12C(=O)Nc1ccc(I)cc12 | inactive
11 | NCC1OC(OC2C(N)CC(N)C(OC3OC(CO)C(O)C(N)C3O)C2O)C(N)CC1O (stereo not given) | inactive

Test system: HepG2
Assay: cytotoxicity call (relative viability < 0.9)
Settings: 10 µM

Row | Structure (SMILES) | cytotoxicity call
12 | COC(=O)C1CCN(S(=O)(=O)c2c(C)n(C)c(=O)n(C)c2=O)CC1 | inactive
13 | C[C@@H]1CCCCO[C@@H](CN(C)C(=O)Nc2ccccc2)[C@H](C)CN([C@@H](C)CO)C(=O)c2cc(NS(=O)(=O)c3cccs3)ccc2O1 | inactive
14 | C[C@@H]1CN([C@H](C)CO)C(=O)c2cc(NC(=O)Nc3ccc(C(F)(F)F)cc3)ccc2O[C@@H](C)CCCCO[C@H]1CN(C)C(=O)Nc1ccc(C(F)(F)F)cc1 | active
15 | O=C(C[C@@H]1C=C[C@@H](NC(=O)CN2CCOCC2)[C@H](CO)O1)NC1CCCCC1 | inactive
16 | C[C@H]1CN([C@@H](C)CO)C(=O)c2cccc(NC(=O)c3ccncc3)c2O[C@H]1CN(C)Cc1ccc(Oc2ccccc2)cc1 | inactive
17 | C[C@@H]1CCCCO[C@@H](CN(C)C)[C@H](C)CN([C@H](C)CO)C(=O)c2cc(NS(=O)(=O)c3cn(C)cn3)ccc2O1 | inactive
18 | O=C(C[C@@H]1CC[C@H]2[C@@H](COC[C@@H](O)CN2C(=O)Nc2cccc(Cl)c2)O1)NCCCN1CCOCC1 | inactive
19 | C[C@@H]1CN([C@H](C)CO)C(=O)c2c(c3ccccc3n2C)-c2ccccc2CO[C@@H]1CN(C)Cc1cccc(F)c1 | inactive
20 | C[C@@H]1CCCCO[C@H](CN(C)S(=O)(=O)c2cccs2)[C@@H](C)CN([C@@H](C)CO)C(=O)c2cc(NC(=O)Nc3ccc4c(c3)OCO4)ccc2O1 | inactive
21 | O=C(C[C@H]1CC[C@@H]2[C@H](COC[C@H](O)CN2S(=O)(=O)c2ccccc2)O1)N[C@@H]1CCN(Cc2ccccc2)C1 | inactive
22 | CC1(C)CC(Nc2ccc(Nc3ccccc3)cc2)CC(C)(C)N1 | inactive
23 | C[C@@H]1CCCCO[C@@H](CN(C)C(=O)CCCN(C)C)[C@H](C)CN([C@@H](C)CO)C(=O)c2cc(NC(=O)Nc3ccc(F)cc3)ccc2O1 | inactive
24 | C[C@@H]1CCCCO[C@H](CN(C)S(=O)(=O)c2ccc(Cl)cc2)[C@@H](C)CN([C@@H](C)CO)C(=O)c2cc(NC(=O)Cc3ccccc3)ccc2O1 | inactive
25 | Cc1noc(C)c1NC(=O)N(C)C[C@@H]1OCCCC[C@@H](C)Oc2ccc(NC(=O)CCC(F)(F)F)cc2C(=O)N([C@@H](C)CO)C[C@H]1C | inactive
26 | O=C(C[C@H]1CC[C@H]2[C@@H](COC[C@@H](O)CN2C(=O)c2ccc3c(c2)OCO3)O1)NC1Cc2ccccc2C1 | inactive
27 | C[C@@H]1CCCCO[C@@H](CN(C)C(=O)Nc2cccc3ccccc23)[C@@H](C)CN([C@@H](C)CO)C(=O)c2cc(NC(=O)c3ccccc3)ccc2O1 | inactive
28 | Cl.NCCCCC(N)C(=O)O (stereo not given) | inactive
29 | C[C@@H]1CN([C@@H](C)CO)C(=O)Cc2cc(NC(=O)Nc3cccc4ccccc34)ccc2O[C@H]1CN(C)Cc1ccc(Cl)c(Cl)c1 | inactive
30 | C[C@@H]1CN([C@H](C)CO)C(=O)c2cc(NC(=O)Nc3ccc(F)cc3)ccc2O[C@@H]1CN(C)C(=O)Nc1ccc(C(F)(F)F)cc1 | inactive

Source: the antibiotic and cytotoxicity screens of Wong et al. (2023)
